Laboratory results published in the supplement of paper PMC10126150.
Sequences with one replicate were seen in a single cluster, so their values are uncertain.

System: ATP
Assay: switch fluorescence ratio, 500 uM ATP over buffer (Cy3 cluster intensity, sum of 5 cycles each) (fold (ratio)); higher = stronger signal-on switching upon ATP binding; sequences stand for … in TCGTCGGCAGCGTCAGATGTGTATAAGAGACAGTTTTTTTTTTTTTTTTTTTTTTTTT…TC
Settings: aptamer strand: ATP DNA aptamer (quencher-CACCTGGGGGAGTATTGCGGAGGAAGG + anchor), 100 nM annealed; ATP concentration: 500 uM; one replicate
Procedure, shortened: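 Switching-strand clusters labelled with Cy3 on a modified Illumina MiSeq flow-cell were annealed to 100 nM quencher-labelled ATP aptamer, imaged in selection buffer, and re-imaged after 15 min with 500 uM ATP at 22 °C. This was done over five cycles with NaOH stripping and re-annealing in between. The fluorescence ratio is summed target-cycle over summed buffer-cycle Cy3 intensity per cluster, averaged per switch-domain sequence, excluding clusters outside 100-1000 RFU.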
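Also: ATP exposure 15 min at 22 °C before imaging.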

Sequence	switch fluorescence ratio
CTATATTGTG	1.02
CTATCAATTA	1.02
CTATCACAGC	1.02
CTATCACATT	0.969
CTATCGGTAT	1.05
CTATCTGACC	0.999
CTATGACGTC	1.04
CTATGATGTT	1.01
CTATGCCTCC	1.1
CTATGGATCC	1.02
CTATGGTAAC	0.996
CTATGGTGGG	0.994
CTATGGTTTG	0.972
CTATGTATCG	0.973
CTATGTCTTG	0.976
CTATTAGACG	1.04
CTATTCCTGC	0.981
CTATTCGCGC	1.18
CTATTCGGCA	1.03
CTATTGAAGG	0.98
CTATTGCACC	1.05
CTATTGCCAT	0.983
CTATTGCGGT	1
CTATTGCTAC	1.71
CTATTTAAGC	1.01
CTATTTGCGT	0.992

Sequence	switch fluorescence ratio
CTATTTGTC	1.03
CTATTTGTTC	1.06
CTCAAAGGAC	1.83
CTCAAATGGG	1.01
CTCAACGGCA	1.04
CTCAAGAACA	0.983
CTCAAGTGTA	1
CTCAATAACC	1.04
CTCAATGCTT	1.1
CTCAATGGAG	1.03
CTCAATTACC	1.11
CTCAATTCGT	1.01
CTCAATTTGG	0.963
CTCAATTTGT	1.03
CTCACCAGTG	2.79
CTCACCGTAA	2.68
CTCACGAAAC	1.35
CTCACGATTA	1.12
CTCAGATAT	1.02
CTCAGCAAG	3.12
CTCAGTGTGT	1.08
CTCAGTTA	1.02
CTCATAACCT	1.83
CTCATCATTA	1.06
CTCATCATTT	0.997
CTCATCGTGT	0.988

Sequence	switch fluorescence ratio
CTCATGGGGG	1.02
CTCCAATGCC	1.43
CTCCCGTCA	0.974
CTCCGAGGGT	1.44
CTCCGAGGTC	2.93
CTCCGTGCAT	6.48
CTCCGTTGTT	2.2
CTCCTAATCC	2.21
CTCCTACGAT	1.47
CTCCTCCTTG	1.38
CTCCTTTTGT	0.99
CTCGAAAGGT	0.996
CTCGAACGAG	1
CTCGAACGTG	0.989
CTCGAGAGAG	0.983
CTCGATGGGT	0.995
CTCGCACAGC	1.95
CTCGCAGTTT	1.17
CTCGCATTTA	1.53
CTCGCCGACC	1.33
CTCGCGAATG	1.39
CTCGCTATGG	1.99
CTCGCTCTAA	1.18
CTCGCTGACA	1.11
CTCGGAGCCC	1.08
CTCGGCTCCG	0.969

Sequence	switch fluorescence ratio
CTCGGGACCT	1.15
CTCGGTATGG	0.992
CTCGTAAAGT	1.49
CTCGTAACGT	1.03
CTCGTATGGT	0.966
CTCGTCAAC	1.34
CTCGTCGATC	1.44
CTCGTGGAGT	1.01
CTCGTGGTGA	1.05
CTCGTGTTCA	1
CTCGTTAATC	1.23
CTCGTTTGCG	0.968
CTCTAACGTT	1.01
CTCTAATGT	1
CTCTAGGAGA	0.968
CTCTATAACG	1.03
CTCTATGGTT	1.04
CTCTCCATAA	1.37
CTCTCCCCCG	2.24
CTCTCTTC	1.05
CTCTCTTTT	1.02
CTCTGAAACG	1.07
CTCTGATTGT	0.964
CTCTGGAGAA	1.09
CTCTGGTCAG	1.05
CTCTTATATC	1.05

Sequence	switch fluorescence ratio
CTCTTCAAAC	2.1
CTCTTGCGTC	1.08
CTCTTGTCAG	0.998
CTGAAAAGGG	0.976
CTGAAATACT	4.34
CTGAACTATT	0.985
CTGAAGATCG	1.03
CTGAAGCCAG	1.26
CTGAAGCGGA	1.12
CTGAATGTTG	1.02
CTGACGGGCT	1.07
CTGACGTCGC	1.13
CTGACTCATT	1.22
CTGACTTGGT	1.02
CTGAGAAGGA	0.968
CTGAGCGTGT	0.982
CTGAGGTTGT	0.959
CTGAGTCCTA	1.08
CTGAGTGTAT	1.01
CTGAGTGTTT	0.963
CTGAGTTGTC	1.06
CTGATACAG	1.03
CTGATATGAT	1
CTGATCGAT	1.98
CTGATTGATT	0.985
CTGATTTACA	1.02

Sequence	switch fluorescence ratio
CTGCAAATTG	1.09
CTGCAAGCA	1.67
CTGCAAGTCC	2.14
CTGCACCCCA	1.43
CTGCAGTAGC	2.43
CTGCATAAAA	1.12
CTGCATGGGA	1.02
CTGCATTGCA	1.06
CTGCATTTTT	1.71
CTGCCACGGA	1.02
CTGCCACTTG	1.04
CTGCCAGAAT	1.01
CTGCCATGAA	1.03
CTGCCCCTTG	1.06
CTGCCCTTGG	1.11
CTGCCGGCTT	1.01
CTGCCGGGAC	1.54
CTGCGATCGA	1.05
CTGCGGAAAC	1.3
CTGCGGCTTC	0.992
CTGCTAACTT	1.1
CTGCTCAGTA	0.992
CTGCTCTTTC	1.08
CTGCTGGGCT	1.02
CTGCTTGT	1.02
CTGCTTTAA	1.02

Sequence	switch fluorescence ratio
CTGGAAGAAG	0.945
CTGGACCCG	0.991
CTGGACGTAC	1.75
CTGGACTAGT	0.967
CTGGACTGAT	1.06
CTGGAGGCT	1.06
CTGGAGTCAT	2.04
CTGGATAAAT	0.998
CTGGCAAAC	5.66
CTGGCACCAA	1.02
CTGGCAGGCG	1.04
CTGGCCGCCA	1.08
CTGGCGAGAA	1
CTGGCTGTGC	1.03
CTGGGAAGT	0.984
CTGGGAGGCC	1.25
CTGGGAGGT	0.993
CTGGGATAGC	0.972
CTGGGCCTTC	1.08
CTGGGCGCGG	0.961
CTGGGCTGAC	1.36
CTGGGGAATG	1.01
CTGGGGACCG	1
CTGGGTCGAA	1.03
CTGGGTCGTA	0.943
CTGGGTCTCG	0.99

Sequence	switch fluorescence ratio
CTGGGTGTT	1.08
CTGGTAACAT	1.01
CTGGTATAAC	1.03
CTGGTATCAC	0.98
CTGGTGAAAT	1
CTGGTGCAAC	1.13
CTGGTGCAGC	1.03
CTGTAAAAGA	0.96
CTGTAGAGCT	1.01
CTGTAGAGGT	0.972
CTGTATGTTT	0.995
CTGTCATACT	1.38
CTGTCCCAAA	1.03
CTGTCCTAAA	0.998
CTGTCTCCG	1.19
CTGTCTTACC	1.03
CTGTGAGGTT	1.1
CTGTGATGAG	0.949
CTGTGATTCG	1.01
